Data from patent publication US12729458B2, “Discovery and evolution of biologically active metabolites” (The Regents of the University of Colorado, a Body Corporate, priority 2020, dated 2026).

Tested on: TC-PTP (PTPN2)
Details: terpenoid produced in the cell by its pathway (pMBISCmR+ADS or ABA)

Compound: C=C(C)[C@@H]1CC[C@@H](C)[C@@H]2CCC(C)=C[C@@H]21 [amorphadiene]
- antibiotic resistance with the PTP1B-specific versus the TC-PTP-specific B2H system: prominent survival advantage
- antibiotic resistance with the PTP1B-specific versus the TC-PTP-specific B2H system (listed as AD): permitted growth at higher concentrations of antibiotic

Compound: CC(C)=CCC=C(C)C1CC=C(C)CC1 (stereo not drawn) [α-bisabolene]
- antibiotic resistance with the PTP1B-specific versus the TC-PTP-specific B2H system: permitted growth at higher concentrations of antibiotic
- antibiotic resistance with the PTP1B-specific versus the TC-PTP-specific B2H system (listed as α -bisabolene): prominent survival advantage

Where two headings read alike, the source gives them in different places.
